Measurements reported in publication PMC6919601, “Identification of Plasmodium dipeptidyl aminopeptidase allosteric inhibitors by high throughput screening” (PLoS ONE, 2019).
The whole screen tested about 110,000 compounds, of which about 230 (0.21%) showed an effect of 50% or more. The list shows a part of the results.

Target: DPAP1 (Plasmodium falciparum, UniProt Q8IIJ9)
Assay: primary screen, percent inhibition; read by cleavage of a fluorogenic dipeptide substrate; higher = more effect of the substance
Design: species or system P. falciparum D10 trophozoite lysates; single well
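Also: 30 min substrate incubation versus DMSO and 10 µM JCP410 controls.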

Sequence of DPAP1 (Q8IIJ9 whole entry, looked up): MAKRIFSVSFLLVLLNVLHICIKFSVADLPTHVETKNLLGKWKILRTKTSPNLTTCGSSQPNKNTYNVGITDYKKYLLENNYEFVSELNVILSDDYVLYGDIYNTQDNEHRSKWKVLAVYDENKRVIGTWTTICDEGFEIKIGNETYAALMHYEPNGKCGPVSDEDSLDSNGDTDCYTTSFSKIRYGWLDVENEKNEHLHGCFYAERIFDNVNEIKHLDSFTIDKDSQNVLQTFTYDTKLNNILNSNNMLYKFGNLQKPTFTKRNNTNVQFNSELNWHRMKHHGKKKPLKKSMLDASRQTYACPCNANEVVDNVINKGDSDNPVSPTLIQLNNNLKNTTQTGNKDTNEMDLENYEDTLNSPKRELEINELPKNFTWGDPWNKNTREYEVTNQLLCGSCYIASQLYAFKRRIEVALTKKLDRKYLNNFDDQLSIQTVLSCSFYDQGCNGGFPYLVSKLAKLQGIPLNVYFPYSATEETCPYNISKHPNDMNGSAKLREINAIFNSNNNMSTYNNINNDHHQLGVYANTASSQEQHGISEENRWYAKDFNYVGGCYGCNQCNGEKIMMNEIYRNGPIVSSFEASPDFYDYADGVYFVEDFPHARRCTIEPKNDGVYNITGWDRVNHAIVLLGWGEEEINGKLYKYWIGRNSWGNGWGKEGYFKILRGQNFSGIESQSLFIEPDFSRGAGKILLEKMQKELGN

Row | Structure (SMILES) | % Inhibition @ 10 uM [%]
1 | COc1cccc(C2C(C#N)=C(N)Oc3cc(C)oc(=O)c32)c1OC (stereo not shown) | -0.0372
2 | CCCCc1nc2ccccc2n1C(C)C(=O)O (stereo not shown) | -3.53
3 | O=C(COCc1cc(-c2ccc(F)cc2)on1)N1CCN(C(=O)c2ccco2)CC1 | -4.38
4 | COc1ccc2c(c1)C1=NN(/C(C)=C/C(C)=O)C(c3cccc(F)c3)C1CC2 (stereo not shown) | -3.23
5 | COC(=O)C1=C(C)N(C)C(C)=C(C(=O)OC)C1c1ccc(OC)c(OC)c1 | 6.12
6 | Cc1ccsc1/C=C1/SC(=O)N(CC(=O)N2CCOCC2)C1=O | -2.44
7 | CCN(CC)CCCNC(=O)CN1C(=O)C(c2ccccc2)Oc2cccnc21 (stereo not shown) | -3.56
8 | Cc1ccc(N2C(=O)C3CC=CC(C)C3C2=O)c(C)c1 (stereo not shown) | -5.46
9 | CCOc1cccc2c1OC(c1cccc(OC)c1OC)N1N=C(c3cccc(OC)c3)CC21 (stereo not shown) | 19.2
10 | Cc1cc(C)n2nc(SCC(=O)NCCc3ccccc3)nc2n1 | -0.519
11 | CC1=C(C#N)C(c2cccc(O)c2)C2=C(O)CC(C)(C)CC2=N1 (stereo not shown) | -3.77
12 | CC(C)CS(=O)(=O)C1=NN2C(=N)/C(=C\c3ccc(SCc4ccco4)o3)C(=O)N=C2S1 | 39.2
13 | O=C(COCC(=O)N1CCCC1)N1CCCC1 | -5.41
14 | CN(c1ncnc2c1cnn2-c1ccc(Cl)cc1)C1CCCCC1 | -1.1
15 | Cc1ccc(S(=O)(=O)NCC2CC3c4ccccc4C2c2ccccc23)cc1 (stereo not shown) | -3.07
16 | CC(C)CCNc1nn2nnnc2c2ccccc12 | -3.18
17 | CCc1c(C=O)[nH]c(C(=O)OCc2ccccc2)c1C | 4.42
18 | Cn1c(=O)c2c(nc3n(CCCO)c(C45CC6CC(CC(C6)C4)C5)cn23)n(C)c1=O | -4.76
19 | c1ccc(CNc2nn3cnnc3c3ccccc23)cc1 | -6.29
20 | CC(C)N(CCC#N)S(=O)(=O)c1ccccc1 | 0.035
21 | CC(C)OCCCNC(=O)C1CCC(CNS(=O)(=O)c2ccc(Cl)cc2)CC1 (stereo not shown) | 3.93
22 | COc1ccccc1C(=O)n1nc(-c2cccnc2)nc1N | 0.628
23 | COc1ccc(Cl)cc1-n1c(C)cc(/C=C2\C(=N)N3N=C(N4CCOCC4)SC3=NC2=O)c1C | 1.72
24 | O=C(O)COc1ccc(Oc2ccc(Cl)cc2)cc1 | 0.992
25 | COc1ccc(CCN/C=C2\CC(=O)NC2=O)cc1OC | 17.1

Row | Structure (SMILES) | % Inhibition @ 10 uM [%]
26 | CN1CCN(C(=O)c2cc(-c3ccc4c(c3)OCO4)nc3ccccc23)CC1 | 0.389
27 | Cc1cc(C)nc(SCC(=O)NCc2cc(-c3nn(C)c(=O)c4ccccc34)ccc2C)n1 | -2.98
28 | CCC(=O)Nc1nc2c(s1)C(=O)CC(c1ccccc1)C2 (stereo not shown) | -1.29
29 | C=Cc1ccc(Cn2c(C(=O)O)c(CNCCC3=CCCCC3)c3ccc(C)cc32)cc1 | 1.59
30 | CCOC(=O)c1sc2nc(N)c(C#N)c(-c3ccccc3)c2c1N | 3.96
31 | COCCN1C(=O)c2oc3ccccc3c(=O)c2C1c1ccc(OC)c(OC)c1 (stereo not shown) | -2.91
32 | COc1ccc(C(O)c2nc3ccccc3n2C)cc1 (stereo not shown) | -2.2
33 | CC1(C)Cc2c(sc(NC(=O)Nc3ccccc3)c2C(N)=O)CO1 | -2.21
34 | Nc1nnc(SCC(=O)n2c3ccccc3c3ccccc32)s1 | 7.73
35 | CCOc1ccccc1C(=O)N1CCN(Cc2ccccc2)CC1 | 3.53
36 | CCCOc1ccc(CC(=O)Nc2ccc(Br)cc2)cc1OC | 5.31
37 | Cc1nccn1CCCNC(=O)COc1ccc(Br)cc1 | -3.47
38 | CC(=O)c1cc(-c2ccccc2)[nH]c1N1CCOCC1 | -4.93
39 | Cc1cc(C)nc(NS(=O)(=O)c2ccc(NC(=S)NC(=O)/C=C/c3ccccc3)cc2)n1 | -5.33
40 | CC(C)N1CNc2nc3ccccc3n2C1 | -1.33
41 | CCOc1ccc(C(=O)Nc2ccc(C)c(Cl)c2)cc1 | -8.95
42 | CCCc1nn2c(=O)cc(CSc3nc4ccccc4s3)nc2s1 | 1.15
43 | CC(=O)c1cccc(NC(=O)C(Sc2ccccc2)c2ccccc2)c1 (stereo not shown) | 2.74
44 | COc1ccccc1CNC(=O)c1ccc2c(c1)ncn2C1CCCC1 | -1.34
45 | O=C1c2ccccc2C(=O)c2c1cc(NC1CCCCC1)c1nsnc21 | 4.16
46 | CCC(C(=O)Nc1nc2nc(C)cc(C)n2n1)c1ccccc1 (stereo not shown) | 8.16
47 | Cc1cccc(NC(=O)COc2ccc(C3C4=C(CCCC4=O)OC4=C3C(=O)CCC4)cc2Cl)c1 | -0.661
48 | COc1cc2c(C(=O)NC3CCCCC3)cn(CC(C)C)c(=O)c2cc1OC | -7.33
49 | CCn1c(SCC(=O)NCc2ccccc2)nnc1-c1nonc1N | 4.33
